The values that follow come from ChEMBL document CHEMBL4888484, “Replenishing the malaria drug discovery pipeline: Screening and hit evaluation of the MMV Hit Generation Library 1 (HGL1) against asexual blood stage Plasmodium falciparum ,using a nano luciferase reporter read-out” (2022).

One may read the % Inhibition as the drop in the measured response relative to a control, in per cent.

The campaign covered roughly 150,000 compounds. About 540 (0.36%) showed an effect of 50% or more. The list shows a part of the results.

This experiment relates to Plasmodium falciparum. Put plainly: Primary screen in NF54 nanoGlo assay, in single point, at 2uM, 72h; a lower Z score goes with more inhibition. The experiment is classed as functional, Erythrocyte. The settings on record: timepoint 72 hour.
With `CCc1nnsc1C(=O)NCc1ccc(N2CCCC2=O)cc1`, the “% Inhibition” value is -9% and the Z score was determined as 1.27.
For the molecule `CN(C)S(=O)(=O)CC(=O)NC1(c2cccc(Cl)c2)CCCC1`, the “% Inhibition” value is on record as -9% and the Z score stood at 1.29.
As to `Fc1cncc(NCc2cncs2)c1`, the “% Inhibition” value is -8% and the Z score is reported as 1.09.
As to `COCCN(C[C@H]1CCCO1)C(=O)c1cc(C(C)C)cc(C(C)C)c1O`, the “% Inhibition” value was 7% and the Z score was -1.26.
Take `CCc1cn[nH]c1[C@H]1CCCN(C(=O)c2nnc3nc(C)ccn23)C1`: the “% Inhibition” value is reported as -7% and the Z score was 1.1.
As for `Cn1c(=O)c2nc(N3CCOCC3)n(CC(=O)c3ccccc3)c2n(C)c1=O`, the “% Inhibition” value was found to be 33% and the Z score was -3.72.
In the case of `COc1cccc(NC(=O)N2CCC(N3CCC(CC4CC4)(C(N)=O)CC3)CC2)c1`, the “% Inhibition” value came to 7% and the Z score is given as -0.85.
In the case of `COc1cccc(C(=O)Nn2c(C)nnc2-n2nc(C)cc2C)c1`, the “% Inhibition” value is recorded as -27% and the Z score amounted to 3.21.
The corresponding values for `Cc1ccc(Nc2nc3ccccc3nc2[C@@H](C#N)S(=O)(=O)c2ccc(Cl)cc2)cc1C` are 0% and 0.01.
For `CCOC(=O)N1CCN(c2nc(Nc3ccc(OC)cc3)c3cn[nH]c3n2)CC1`, the “% Inhibition” value was -32% and the Z score is given as 4.11.
The corresponding values for `CCc1nnc2n1CCN(Cc1cc(-c3ccccc3)no1)C2` are -12% and 2.3.
With `c1coc(-c2noc(CN3CCn4ccnc4C3)n2)c1`, the “% Inhibition” value is -15% and the Z score worked out at 1.76.
The corresponding values for `O=c1cc(C(F)(F)F)[nH]c2nc(-c3cccnc3)nn12` are 9% and -1.19.
The corresponding values for `C#CCCC1(CCC(=O)N2CC(OC(F)F)C2)N=N1` are -5% and 0.64.
As to `Cc1nccc(C(=O)N(Cc2ccccc2)CC(F)F)n1`, the “% Inhibition” value worked out at 6% and the Z score is -0.94.
Consider `O=C(Cc1ccoc1)N[C@H](CO)CN1CCCCC1`, for which the “% Inhibition” value is recorded as -8% and the Z score stood at 1.23.
The corresponding values for `O=C1CC[C@]2(C(=O)NCc3ccc(Cl)cc3)CCC=C2N1C1CCCC1` are -8% and 0.99.
The corresponding values for `CC1CCCN(c2ccc(C#N)cc2Br)C1CN` (centres undefined) are -5% and 0.96.
`COc1cccc(CN2CC[C@H]3COC(=O)N3c3ccc(OC)cc3C2)c1`: the “% Inhibition” value stood at 9% and the Z score is -1.08.
For the molecule `CCC(C)C(NC(=O)Nc1ccc(Cl)cc1)C(=O)O` (centres undefined), the “% Inhibition” value is given as 0% and the Z score is listed as 0.02.
As to `CCCN(CC1CC1)C(=O)[C@@H]1Cc2[nH]cnc2C2(CCCC2)N1`, the “% Inhibition” value is listed as -5% and the Z score came to 1.01.
For the molecule `Cc1nc(C)n(CCCNC(=O)[C@H](C)n2cc(Cl)cn2)n1`, the “% Inhibition” value is recorded as 14% and the Z score is -2.65.
Taken in the same sequence, the figures for `O=C(c1csc(=O)[nH]1)N1CCc2ccc(F)c(F)c2C1` were -1% and 0.18.
As for `CCC(=O)Nc1ccc2c(c1)cc(C(=O)NCCc1ccccn1)n2Cc1cccc(F)c1`, the “% Inhibition” value was -4% and the Z score is 0.51.
Consider `CCCCS(=O)(=O)N1CC[C@H](CC(=O)NCc2ccccc2)C1`, for which the “% Inhibition” value is listed as 35% and the Z score is -5.13.
Consider `CCC(CC)[C@H](NC(=O)CS(=O)(=O)C(C)C)c1cccs1`, for which the “% Inhibition” value is -15% and the Z score stood at 2.93.
Taken in the same sequence, the figures for `Cc1cc(CN2C[C@@H](C)N(Cc3cc(C)ncn3)[C@@H](C)C2)ncn1` were -6% and 1.16.
Taken in the same sequence, the figures for `O=C1N(C/C=C/c2ccccc2)c2ccccc2[C@@]1(O)c1c[nH]c2ccccc12` were -5% and 0.93.
Consider `Cc1cc(O[C@H]2CCN(C(=O)c3nc4ccccc4s3)C2)cc(=O)n1C`, for which the “% Inhibition” value is given as -1% and the Z score amounted to 0.09.
Taken in the same sequence, the figures for `CC(C)c1cc(CN2CC[C@H](c3ccnc(-c4cccc(O)c4)c3)C2)on1` were -14% and 2.13.
With `Cc1cccc(S(=O)(=O)N2CCN(Cc3nc4cc(-c5ccccc5)ccc4o3)CC2)c1`, the “% Inhibition” value was -6% and the Z score worked out at 0.74.
Take `CCc1ccc([C@H](C)NC(=O)c2nnn3c2c(=O)[nH]c2cc(C)ccc23)cc1`: the “% Inhibition” value was -2% and the Z score is given as 0.33.
Regarding `CCCCNC(=O)[C@H]1CNC[C@@H](COc2ccc3c(c2)CCC3)C1`, the “% Inhibition” value is on record as -6% and the Z score came to 0.75.
As to `COCCN(CCC(=O)NCCN1CCOCC1)c1nc(-c2ccco2)nc2cc(Cl)ccc12`, the “% Inhibition” value was -1% and the Z score worked out at 0.23.
Take `O=C(CC[C@@H]1CNC(=O)[C@@H]2C[C@H](NC(=O)c3ccc(F)c(Cl)c3)CN12)NCc1ccccc1`: the “% Inhibition” value is given as 31% and the Z score was -3.48.
Take `CN(CCN1CCCCC1=O)c1nc2c(c(=O)[nH]1)Cc1ccccc1OC2`: the “% Inhibition” value is recorded as -1% and the Z score is given as 0.11.
On to `Cc1ccsc1-c1cccc(C(=O)N2CCC[C@H](N)CC2)c1`, for which the “% Inhibition” value was 8% and the Z score was -0.82.
For the molecule `Cc1noc(C[C@H]2CCCN(Cc3nnnn3C(C)(C)C)C2)n1`, the “% Inhibition” value is -3% and the Z score was determined as 0.62.
On to `CN(C)c1cccc(CNc2ncc(Br)cn2)n1`, for which the “% Inhibition” value was -8% and the Z score came to 0.71.
Regarding `O=S(=O)(c1ccccc1)N1CCN(Cc2cc3c(cc2Br)OCCO3)CC1`, the “% Inhibition” value is given as 9% and the Z score is recorded as -1.47.
For `Cc1cnc([C@H](C)NC(=O)c2cc(C)c(Br)cc2C)o1`, the “% Inhibition” value was -13% and the Z score is listed as 1.43.
As to `Cc1nc(-c2ccc(N3CCN(C(=O)NCc4cccs4)CC3)nc2)no1`, the “% Inhibition” value is -8% and the Z score came to 1.42.
